Out of some 310,000 compounds screened, about 2,200 (0.71%) showed an effect of 50% or more. Effects have a minus sign here. Some of the results follow.

The values that follow come from paper PMC4336329 (PLoS ONE, 2015).

Sequence of human ether-à-go-go-related gene (hERG) potassium channel (Q12809 whole entry, looked up): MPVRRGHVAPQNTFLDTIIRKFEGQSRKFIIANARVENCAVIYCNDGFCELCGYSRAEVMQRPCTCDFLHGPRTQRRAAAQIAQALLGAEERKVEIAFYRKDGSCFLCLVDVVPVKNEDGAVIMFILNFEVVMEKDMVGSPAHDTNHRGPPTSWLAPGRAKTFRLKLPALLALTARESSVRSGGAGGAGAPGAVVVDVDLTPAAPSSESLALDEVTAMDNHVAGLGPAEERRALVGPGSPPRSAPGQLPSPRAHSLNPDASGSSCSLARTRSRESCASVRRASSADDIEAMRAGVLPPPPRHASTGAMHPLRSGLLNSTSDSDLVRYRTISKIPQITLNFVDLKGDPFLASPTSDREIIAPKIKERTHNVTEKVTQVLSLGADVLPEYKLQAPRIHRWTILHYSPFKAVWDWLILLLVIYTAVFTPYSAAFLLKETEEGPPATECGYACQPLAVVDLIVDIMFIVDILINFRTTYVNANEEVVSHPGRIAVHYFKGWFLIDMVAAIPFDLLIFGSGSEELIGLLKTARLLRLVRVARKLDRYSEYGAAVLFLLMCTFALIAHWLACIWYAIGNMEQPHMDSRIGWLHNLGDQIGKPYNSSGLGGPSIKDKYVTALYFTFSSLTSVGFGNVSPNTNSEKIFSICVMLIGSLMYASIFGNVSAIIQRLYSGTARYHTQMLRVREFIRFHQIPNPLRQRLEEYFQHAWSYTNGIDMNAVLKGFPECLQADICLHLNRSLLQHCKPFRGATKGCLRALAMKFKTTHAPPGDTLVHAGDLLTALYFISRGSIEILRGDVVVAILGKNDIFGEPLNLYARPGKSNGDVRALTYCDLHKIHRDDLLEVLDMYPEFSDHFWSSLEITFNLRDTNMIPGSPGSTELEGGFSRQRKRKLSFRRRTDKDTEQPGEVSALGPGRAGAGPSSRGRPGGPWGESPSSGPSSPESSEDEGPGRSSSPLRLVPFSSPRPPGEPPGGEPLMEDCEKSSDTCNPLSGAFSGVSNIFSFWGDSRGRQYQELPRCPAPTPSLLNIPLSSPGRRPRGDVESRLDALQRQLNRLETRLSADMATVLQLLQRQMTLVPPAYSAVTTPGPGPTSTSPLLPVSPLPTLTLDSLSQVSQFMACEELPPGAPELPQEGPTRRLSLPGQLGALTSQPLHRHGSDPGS

The assay concerns the target human ether-à-go-go-related gene (hERG) potassium channel (human, UniProt Q12809). Kind of assay: primary screen, population patch clamp on CHO cells stably expressing hERG.
Turning to `Cc1ccc(-c2nnc(N3CCN(C(=O)COc4ccccc4)CC3)c3ccccc23)cc1`, the “hERG current change (%, negative = inhibition) at 1uM” value stood at 13.8%.
With `CCN(CC)C(=O)Nc1ccc(Br)cc1` the figure was -1.03%; with `Cl.O=C(CN1CCC(NC(=O)c2ccccc2F)CC1)Nc1ccc2c(c1)OCCO2`, 13.1%; with `CCN(C(=O)C1=COCCO1)c1nc2c(C)cccc2s1`, 0.721%.
With `COc1ccc(C(=O)CC(=O)C(=O)Nc2ccc(C)c(Cl)c2)cc1` the figure was 14.4%; with `CC(C)Oc1ccc(C(=O)Nc2ccccc2N2CCOCC2)cc1`, 2.01%.
For the compound `COc1cc(CN2CCC(n3nccc3NC(=O)CCCc3ccccc3)CC2)ccc1O`, the “hERG current change (%, negative = inhibition) at 1uM” value is -5.54%.
The figure for `COCCNCCCCOc1ccc(Br)cc1C.O=C(O)C(=O)O` is -12.5%; for `CCC(=O)Nc1sc2c(c1C(N)=O)CCN(Cc1ccccc1)C2.Cl` it is 0.596%; for `COc1ccc(CCN(C)c2ccc(S(=O)(=O)N3CCCC3)cc2[N+](=O)[O-])cc1OC` it is 11.8%.
The figure for `CCCCN(CCCC)S(=O)(=O)c1ccc2oc(C(=O)N3CCOCC3)c(C)c2c1` is -0.622%; for `Cc1ccccc1OCC(=O)N=Nc1c(O)n(C)c2ccccc12` it is -1.91%.
The figure for `COc1ccc(C(C(=O)NC2CCCC2)N(C(=O)c2ccco2)c2ccc(OC)c(OC)c2)cc1` (stereo not drawn) is 8.34%; for `O=C(NNC(=S)Nc1ccc(Br)cc1Cl)c1ccncc1` it is 7.19%; for `O=C(CN1CC(c2ccccc2)CC1=O)OCc1cccc(Br)c1` (stereo not drawn) it is 16.3%.
As for `Cc1c(C(=O)NNC(=S)Nc2ccc(S(N)(=O)=O)cc2)oc2ccccc12`, the “hERG current change (%, negative = inhibition) at 1uM” value was 18.2%.
The figure for `CCC(=O)N(Cc1cc(=O)[nH]c2ccccc12)c1ccccc1` is 8.16%.
The figure for `COC(=O)C1=C(c2cccc(OC)c2OC)C[C@@H]2CC[C@H]1N2C(=O)NCCO` is 19.5%; for `O=P(CCN1CCCCC1)(c1ccccc1)c1ccccc1` it is 11.1%.
The figure for `CCOc1ccc(OCc2ccc(C(=O)NN)o2)cc1` is 9.4%.
As to `CS(=O)(=O)NCc1nnc2n1-c1ccc(Cl)cc1C(c1ccccc1)=NC2`, the “hERG current change (%, negative = inhibition) at 1uM” value is on record as 7.22%.
With `Cc1nn(-c2ccccn2)c2c1C(c1ccncc1)C1=C(CC(C)(C)CC1=O)N2` (stereo not drawn) the figure was -4.81%.
With `COc1ccc(C2=NOC(COc3ccc4c(C)cc(=O)oc4c3)C2)c(OC)c1` (stereo not drawn) the figure was 3.24%; with `CC(=O)c1cccc(NC(=O)c2ccc(S(=O)(=O)N3CCCC3)cc2)c1`, 13.4%.
With `CCNc1ccc(C(=O)O)cc1N` the figure was 9.47%.
For the compound `FC(F)(F)c1cnc(NNC(=S)Nc2ccc(Cl)cc2)c(Cl)c1`, the “hERG current change (%, negative = inhibition) at 1uM” value amounted to 11.4%.
The figure for `C/C(=N/NS(=O)(=O)c1ccc(Br)cc1)c1ccc(NC(=O)c2ccc(C)o2)cc1` is 8.78%; for `CCCN(CCC)CC(O)Cn1cc(/C=C/C(=O)c2cccs2)c2ccccc21` (stereo not drawn) it is 12.3%.
The figure for `CC(C)c1ccc(NC2CCCN(C(=O)CCCn3cncn3)C2)cc1` (stereo not drawn) is -0.211%; for `O=C(NCCc1ccccc1)C1CCN(S(=O)(=O)N2CCCCC2)CC1` it is 10.5%.
The figure for `CCNC(=S)NC1CC2CCC(C1)N2Cc1ccccc1` (stereo not drawn) is -3.16%; for `O=C1CC(N2CCOCC2)C(=O)N1CCc1ccccc1` (stereo not drawn) it is 9.9%.
Consider `Cc1ccccc1-c1nc(CN2CCC(C(=O)NCCC3=CCCCC3)CC2)c(C)o1`, for which the “hERG current change (%, negative = inhibition) at 1uM” value is -32%.
The figure for `COc1ccc(NS(=O)(=O)c2c(F)cccc2F)cc1S(=O)(=O)N1CCOCC1` is 12%.
With `Cc1cccc(NC(NC(=O)c2cccnc2)C(Cl)(Cl)Cl)c1` (stereo not drawn), the “hERG current change (%, negative = inhibition) at 1uM” value was 1.37%.
The figure for `CCc1nnc(NC(=O)CSc2nc(C)nc3c2c(=O)n(C)c(=O)n3C)s1` is 9.24%; for `O=C(CNC(=O)c1ccc(Cl)cc1Cl)Nc1ccc(F)cc1` it is 10.1%; for `Clc1cccc(Cl)c1CSc1nnc(-c2sccc2-n2cccc2)o1` it is 12.9%.
`COc1ccccc1NC(=O)CN1C(=O)C2(OCCCO2)c2ccccc21`: the “hERG current change (%, negative = inhibition) at 1uM” value is given as -2.64%.
The figure for `O=C(NCc1nnc2c(C(F)(F)F)cc(Cl)cn12)c1ccco1` is 4.35%; for `Cc1cc(C(=O)NCc2ccccc2F)c2ccccc2n1` it is 13.2%.
The figure for `CCOC(=O)N1CCN(C(=O)c2cc(S(=O)(=O)N3CCc4ccccc43)ccc2OC)CC1` is -7.66%.
With `O=C(NCc1ccc(Cl)cc1)C1CCC(CNc2c(N3CCCCC3)c(=O)c2=O)CC1` (stereo not drawn) the figure was 11.6%.
Consider `CCC1(c2ccccc2)NC(=O)N(CC(=O)Nc2cc(S(=O)(=O)N3CCCCCC3)ccc2OC)C1=O` (stereo not drawn), for which the “hERG current change (%, negative = inhibition) at 1uM” value is 5.11%.
The figure for `O=C(COc1ccc2c(C(F)(F)F)cc(=O)oc2c1)Nc1ccc(N2CCOCC2)cc1` is 6.04%.
The figure for `CCOC(=O)c1sc(NC(=O)c2ccc(Cl)s2)cc1C` is -0.539%; for `N#CC1(NC(=O)Cn2ncc(Cl)c(Cl)c2=O)CCCCC1` it is 24.1%.
The figure for `CC1CCCC(NC(=O)COC(=O)/C=C/c2ccc(S(=O)(=O)N3CCOCC3)cc2)C1C` (stereo not drawn) is 3.56%; for `CN(C)S(=O)(=O)Oc1ccsc1C(=O)Nc1cccc(Cl)c1Cl` it is -6.59%.
In the case of `COc1ccc(CCN2C(=O)CS/C2=N\NC(=O)c2cccs2)cc1OC`, the “hERG current change (%, negative = inhibition) at 1uM” value worked out at 6.09%.
The figure for `COC(CNC(=O)c1c[nH]c2ccc(S(=O)(=O)N3CCOCC3)cc2c1=O)OC` is 3.17%; for `CCN(CC)CCNC1=NCCn2c1cc1cc(OC)ccc12.Cl` it is -45%; for `Cc1cc2cc(CNC(=S)NC3CCCCC3)ccc2n1C` it is 7.95%.
The figure for `COC(=O)c1cc(Br)c(=O)n(Cc2ccc(C(=O)O)cc2)c1` is 17%.
With `COc1ccc(OC)c(N=Cc2c(O)[nH]c3ccccc23)c1` the figure was 5.55%; with `COc1ccc(CNC(=O)CN(Cc2ccc(OC)cc2)C(=O)CCC(=O)Nc2ccccn2)cc1`, -17.9%.
As to `CCOc1ccc(C(=O)Nc2ccccc2CC)cc1[N+](=O)[O-]`, the “hERG current change (%, negative = inhibition) at 1uM” value is listed as 0.822%.
The figure for `CCOc1cc2c(cc1OCC)C(c1ccc(OC)c(OC)c1)N(c1ccc(C(=O)O)cc1)C(=O)C2` (stereo not drawn) is 19.3%; for `CCCN(CC(=O)NC(=O)NC1CCCCC1)CC(=O)Nc1cc(Cl)ccc1Cl` it is 11.7%; for `COCCN(C(=O)CSc1nc2ccccc2c(=O)n1C(C)COC)c1c(N)n(Cc2ccccc2)c(=O)[nH]c1=O` (stereo not drawn) it is 13.1%.
With `CC(C)(C)CN1C(=O)C(=O)NC[C@@H]1Cc1ccc(O)cc1` the figure was 15.4%.
With `CCOC(=O)c1cccc(NC(=O)CSc2nc3ccccc3c(=O)n2CC)c1` the figure was 12.4%.
Consider `CCn1cc(C(=O)O)c(=O)c2cnc(N3CCN(C(=S)Nc4ccccc4Cl)CC3)nc21`, for which the “hERG current change (%, negative = inhibition) at 1uM” value stood at 8%.
The figure for `COc1ccc(Br)cc1-c1noc(-c2ccncc2)n1` is 15.9%; for `O=C(NC1CCCCCC1)C1CCN(C(=O)c2ccc(Br)cc2)CC1` it is 7.07%.
With `OCCC1CN(Cc2cnc(N3CCCC3)s2)CCN1Cc1ccccc1` (stereo not drawn) the figure was 16%.
For the compound `CCC(c1nnnn1C(C)(C)C)N(Cc1ccco1)Cc1cc2cccc(C)c2[nH]c1=O` (stereo not drawn), the “hERG current change (%, negative = inhibition) at 1uM” value turned out to be 3.3%.
With `Cc1ccc(C(=O)NC(=S)Nc2ccc(CN3CCOCC3)cc2)cc1` the figure was 9.39%.
The figure for `CCc1cc(N2CCOCC2)cc2c1[nH]c1ccccc12` is 4.09%.
For the compound `CCOC(=O)CCCNC(=O)CCNC(=O)c1ccc(OC(C)C)cc1`, the “hERG current change (%, negative = inhibition) at 1uM” value is listed as 8.34%.
The figure for `CC(=O)n1c2ccccc2c2c1c1ccccc1n2C` is 5.83%; for `COc1cccc(CN2CC(C(=O)N3CCCO3)CCC2=O)c1` (stereo not drawn) it is 8.39%; for `O=Nc1c(O)n(Cc2cccc(Cl)c2)c2ccccc12` it is 10.8%.
The figure for `Cc1cc(C)c(NC(=O)CN(C)C(=O)c2ccc(OCc3ccccc3)cc2)c(C)c1` is 12.9%; for `COc1ccc(CN(C(=O)c2snc(C(N)=O)c2N)C(C(=O)NC2CCCC2)c2ccc(OC)c(OC)c2)cc1` (stereo not drawn) it is 8.23%; for `Cc1cccc(NC(=O)c2ccc3c(c2)C(=O)N(c2ccccc2C)C3=O)n1` it is 19.8%.
With `COc1ccc(CCC(=O)Nc2nc3ccccc3[nH]2)cc1OC` the figure was -51.1%; with `CCCc1cc(=O)oc2cc(OC(=O)CN3C(=O)NC4(CCCC4)C3=O)ccc12`, 2.91%; with `S=C(Nc1ccc(Oc2ccccc2)cc1)N1CCN(c2ccccn2)CC1`, 10.1%.
`Cc1ccc2oc(C(Cl)(Cl)Cl)cc(=O)c2c1`: the “hERG current change (%, negative = inhibition) at 1uM” value is given as 10.4%.
The figure for `COc1ccccc1C(=O)C(O)c1ccccc1OC` (stereo not drawn) is -0.792%.
With `CCOc1cc(-c2nc(-c3ccncc3)no2)cc(OCC)c1OCC` the figure was -2.06%.
With `O=C(/C=C/c1cccc(Cl)c1)Nc1ccncc1` the figure was 3.5%; with `Cc1ccc(-c2nnc(SCC(=O)Nc3ccc4c(c3)oc3ccccc34)n2C)c(Cl)c1`, 6.02%; with `Cc1ccccc1-n1c(-c2ccoc2)nc2ccccc2c1=O`, 12%.
Regarding `O=[N+]([O-])c1ccc(O)c(Nc2ncnc3ccccc23)c1`, the “hERG current change (%, negative = inhibition) at 1uM” value is on record as 10.4%.
In the case of `NS(=O)(=O)c1ccc(NC(=O)c2cc(Cl)sc2Cl)cc1`, the “hERG current change (%, negative = inhibition) at 1uM” value is -4.94%.
